# Hit rate of the full screen: of about 420,000 compounds, about 64,000 (15%) were called active. Inconclusive results, whose numbers are uncertain, are shown with a selection of clear calls. Calls come from the whole dose curve; as a rule, active = well fitted inhibition curve with a large enough effect; inconclusive = small, poorly fitted or top-dose-only effect; inactive = flat fitted curve, though single readings scatter. Potencies of inconclusive entries are left out as doubtful fits.
# Assay: qHTS for Inhibitors of human tyrosyl-DNA phosphodiesterase 1 (TDP1): qHTS in cells in absence of CPT; note: nearly all actives have a fitted effect of over 55% in size
# Conditions: DT40 Tdp1-/- hTDP1 cells, no CPT, ATP luminescence, 48 h; activity change, negative = growth inhibition: at 46.2 µM (top of the series) unless noted
# In short: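 No-CPT arm: Tdp1-/-;hTDP1 DT40 cells (400/well) plus compounds, incubated ≥48 hr at 37 °C. Readout CellTiter-Glo luminescence.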
# % is set by controls: 0 for no effect and ±100 for the full control effect; potency is the fitted concentration of half-maximal effect; tags give direction and shape of the fitted curve.
SMILES,Potency,"activity change, negative = growth inhibition"
Cc1cc(-n2[nH]c(C)c(C)c2=O)nc(-c2ccccc2O)n1,"inconclusive [inhibitor, single point]",–
CC(C)(C)[C@H]1COC(=O)CCC/C=C/C[C@H](CC(=O)NCCO)C(=O)N1,–,inactive: 13.8%
CCCNc1c(NC(=O)c2ccc3c(c2)OCO3)c(=O)oc2ccccc12,"inconclusive [inhibitor, partial curve]",–
O=C1CC(c2ccc3c(c2)OCCO3)Oc2ccccc21 (stereo unspecified),–,inactive: -19.9%
COc1ccc(-c2coc3cc(OC)cc(OC)c3c2=O)cc1,"inconclusive [inhibitor, single point]",–
Cc1cccc(NS(=O)(=O)c2ccc(Oc3ccccc3)cc2)n1,"inconclusive [inhibitor, single point]",–
COc1ccc(Nc2ccnc3ccccc23)cc1,active: 16.4 µM,–
CCOC(=O)C1=C(C)Nc2ccccc2N=C1NC(=O)c1cccc(S(=O)(=O)N(C)C)c1,–,inactive: -10.6%
NC(=O)c1nsc(C(=O)N(Cc2cccnc2)C(C(=O)NCc2ccc(F)cc2)c2ccc(O)cc2)c1N (stereo unspecified),–,inactive: -21.4%
CCCCN1C(=O)C(=O)N(CC(=O)N2CCc3ccccc32)C1=O,–,inactive: -19.6%
CC1CCN(c2ccc(NC(=O)c3ccc([N+](=O)[O-])o3)cc2)CC1,active: 3.26 µM,–
Cc1cc(C)cc(NC(=O)C2CCCN2S(=O)(=O)c2cccc3nsnc23)c1 (stereo unspecified),"inconclusive [inhibitor, single point]",–
CCN(CC)CCN(C(=O)c1ccc2c(c1)OCCO2)c1nc2cc(C)cc(C)c2s1,"inconclusive [inhibitor, single point]",–
Cc1ccc(NC(=O)CSCC(=O)Nc2ccccc2N2CCCCC2)cc1,"inconclusive [inhibitor, single point]",–
COCCSc1ccccc1C(=O)Nc1cccnc1,–,inactive: 9.18%
COc1ccc(-c2ccc(C(=O)NCC3CC3)c3occc23)c(C)c1,"inconclusive [inhibitor, single point]",–
Cc1ccc(C2=CC(c3c(F)cccc3Cl)n3ncnc3N2)cc1C (stereo unspecified),"inconclusive [inhibitor, single point]",–
CC(C)(C)C(=O)Nc1ncc(C(F)(F)F)cc1Cl,–,inactive: -14.4%
COc1cc2cc(-c3ccc(OC)c(OC)c3C)nc(N)c2cc1OC,active: 5.8 µM,–
COc1cc(C(=O)N/N=C(\Cc2ncc[nH]2)c2ccccc2)cc(OC)c1OC,active: 5.17 µM,–
CCCCC1=CC2=C(c3ccco3)C(=O)C(C)(OC(=O)c3ccc(OC)cc3)C(=O)C2=CN1CCCCO (stereo unspecified),"inconclusive [inhibitor, single point]",–
COc1cc(-c2nnc(NC(=O)CS(=O)(=O)c3ccc(Cl)cc3)o2)cc(OC)c1OC,–,inactive: 4.37%
Cc1cccc(N(CC(=O)NCc2ccc3c(c2)OCO3)C(=O)CCC(=O)Nc2ccccn2)c1,"inconclusive [inhibitor, partial curve]",–
O=C(CN1CCN(c2ccccc2F)CC1)Nc1nnc(C(F)(F)F)s1,"inconclusive [inhibitor, single point]",–
Cc1ccc(-c2nn3c(C)nnc3s2)cc1NC(=O)c1ccc(-c2ccc(Cl)cc2Cl)o1,active: 6.51 µM,–
NS(=O)(=O)c1ccc(NC(=O)COc2ccc(C(=O)c3ccc(F)cc3)cc2)cc1,active: 11.6 µM,–

SMILES,Potency,"activity change, negative = growth inhibition"
COc1ccc(NC(=O)N2CCCC2C(=O)NCc2ccc(F)cc2)cc1 (stereo unspecified),–,inactive: -29.2%
O=C(c1ccc2c3n(nc2c1)-c1ccc(Cl)cc1CO3)N1CCCCC1,"inconclusive [inhibitor, single point]",–
COc1ccccc1NC(=O)C1CCN(C(=O)c2ccco2)CC1,–,inactive: 3.46%
O=[N+]([O-])c1cc(Br)c(O)c(/C=N/Nc2nc3ccccc3s2)c1,active: 18.4 µM,–
COc1ccc2nc(SCC(=O)Nc3cc(C)on3)[nH]c2c1,–,inactive: -12.9%
COc1ccc(N2C(=O)c3ccc(C(=O)Nc4ccccc4O)cc3C2=O)cc1,–,inactive: 3.39%
COc1cccc(C2C(C(=O)Nc3ccccc3)=C(C)Nc3nc(-c4ccccc4)nn32)c1OC (stereo unspecified),"inconclusive [inhibitor, single point]",–
COc1ccccc1OCCCOc1cccc(/C=C2\SC(=O)NC2=O)c1,"inconclusive [inhibitor, single point]",–
O=C1CN(S(=O)(=O)c2cccc(Cl)c2Cl)c2ccccc2N1,–,inactive: -12.5%
CC1CCN(c2nc3ccc(C(=O)N4CCN(Cc5ccc6c(c5)OCO6)CC4)cc3s2)CC1,"inconclusive [inhibitor, single point]",–
CC(C)Cc1nnc(NC(=O)CCc2c[nH]c3ccccc23)s1,–,inactive: -18.9%
Cc1nc(NS(=O)(=O)c2ccccc2)sc1C(=O)NNS(=O)(=O)c1ccccc1,–,inactive: 2.96%
NC(=O)C1=C[C@H](c2csc3ccccc23)C[C@H](OCc2ccc(CO)cc2)O1,active: 20.6 µM,–
COc1cccc(N2CCN(CC(=O)c3c[nH]c4ccc(OC)cc34)CC2C)c1 (stereo unspecified),active: 20.6 µM,–
COc1ccc(CNc2nc3c(c(=O)n(C)c(=O)n3C)n2Cc2ccccc2Cl)cc1,"inconclusive [inhibitor, full curve, poor fit]",–
Cc1cccc(-c2cnc(C)nc2C2CCCN(C(=O)c3cccc(Cn4cccn4)c3)C2)c1 (stereo unspecified),"inconclusive [inhibitor, single point]",–
Nc1nc(N)c(C=Nc2ccc(Br)cc2)c(Nc2ccc(Br)cc2)n1,active: 13 µM,–
Cc1ccc(C)c(CN2CCC(CNC(=O)c3cc4ccc5cccnc5c4[nH]3)CC2)c1,"inconclusive [inhibitor, single point]",–
COC(=O)c1c(CCl)noc1C(=O)NCC1CCCO1 (stereo unspecified),–,inactive: -74%
O=C(Cc1c(F)cccc1Cl)Nc1cc(S(=O)(=O)N2CCOCC2)ccc1N1CCOCC1,"inconclusive [inhibitor, single point]",–
COc1ccc(NCc2n[nH]nc2-c2ccccc2)cc1Cl,"inconclusive [inhibitor, single point]",–
CC1(Oc2ccccc2-c2ccno2)CCN(Cc2csc3ccccc23)C1 (stereo unspecified),"inconclusive [inhibitor, single point]",–
CC(=O)N1CCc2cc(S(=O)(=O)NCCCOC(C)C)ccc21,"inconclusive [inhibitor, partial curve]",–
CCC(C)C(NC(=O)OCc1ccccc1)C(=O)NCC(c1ccccc1)N(C)C (stereo unspecified),–,inconclusive: -36.2% [inhibitor]
Cc1ccc(/C=N/Nc2ccc(C(=O)O)cc2)s1,–,inactive: -25.8%
CN(C)S(=O)(=O)c1cccc(NC(=O)c2cc(-c3cccs3)nn2-c2ccccc2)c1,active: 14.6 µM,–

SMILES,Potency,"activity change, negative = growth inhibition"
COc1ccc(OC)c(S(=O)(=O)N2CCCC(C(=O)NCc3cccnc3)C2)c1 (stereo unspecified),–,inactive: -4.51%
CC(C)(C)C(=O)C1=C(O)C(=O)N(c2ccccc2)C1c1ccccc1 (stereo unspecified),–,inactive: -11.1%
Cc1ccccc1NC(=O)CN1C(=O)S/C(=C\c2ccc(-c3cc(C(=O)O)ccc3C)o2)C1=O,–,inactive: -27.1%
CCOC(=O)Cn1c(-c2cccnc2)nc(-c2ccccc2)c1-c1ccccc1,active: 23.1 µM,–
COc1ccc(N2CCN(C(=O)[C@H](C)N3C(=O)C4CC=CCC4C3=O)CC2)cc1 (stereo partly specified),–,inactive: -5.84%
CCOc1cc(CNCc2cccs2)cc(Br)c1OC,"inconclusive [inhibitor, single point]",–
C=C1C(=O)C23C(O)C1CCC2C12CCCC(C)(COC(C)=O)C1C(O)C3(O)OC2 (stereo unspecified),active: 0.731 µM,–
CCN(CC)c1ccc(NC(=O)c2sc3nc4c(cc3c2N)CN(C)CC4)cc1,active: 16.4 µM,–
CC[C@@H](NC(=O)[C@@H](Cc1ccccc1)NC(=O)CC[C@H]1O[C@@H](n2ccc(=O)[nH]c2=O)[C@H](O)[C@@H]1O)c1ccccc1,–,inactive: 9.21%
CN(C)/C(=N\S(=O)(=O)c1ccccc1)c1ccccc1,–,inactive: -6.61%
Cc1ccc(C(=O)n2cnc3ccccc32)cc1C,–,inactive: -13.6%
Cn1c(=O)c(-c2cccs2)nc2cnc(N3CCNCC3)nc21,–,inactive: -26.3%
O=C(O[C@@H](C(=O)O)[C@@H](OC(=O)c1ccccc1)C(=O)O)c1ccccc1,–,inactive: -5.73%
COc1ccc(N/C=C/c2nc(SC)nnc2C)cc1,"inconclusive [inhibitor, single point]",–
Cc1ccc(NC(=O)C2CCC(N3C(=O)C4CCCCC4C3=O)CC2)cc1 (stereo unspecified),"inconclusive [inhibitor, single point]",–
O=C(Nc1ccc2nc(SCC(=O)N3CCc4ccccc43)sc2c1)c1cccc(Cl)c1,"inconclusive [inhibitor, partial curve]",–
O=C(NC(=S)Nc1ccc(CN2CCOCC2)cc1)c1ccc(-c2cccc(Cl)c2)o1,active: 7.31 µM,–
CCOc1cc(NC(=O)C2CC2)c(OCC)cc1NC(=O)CCn1nnc2ccccc21,–,inactive: -9.82%
Cc1cc(C)c(C#N)c(SCc2nc3ccccc3[nH]2)n1,"inconclusive [inhibitor, single point]",–
COc1ccc(-c2sc3ccccc3c2C#CCCO)cc1,"inconclusive [inhibitor, single point]",–
O=C(Nc1nccs1)c1ccc(Br)c(S(=O)(=O)N2CCOCC2)c1,"inconclusive [inhibitor, full curve]",–
CC(=O)c1ccc(S(=O)(=O)NC2CC(=O)N(c3cccc(F)c3)C2)cc1 (stereo unspecified),–,inactive: -29.7%
COc1ccccc1CNC(=O)C(C)NS(=O)(=O)c1ccc(Br)cc1 (stereo unspecified),"inconclusive [inhibitor, single point]",–
COc1ccc(C)cc1NS(=O)(=O)c1cc2c3c(c1)CC(=O)N3CCC2,–,inactive: -8.75%
